# In the supplement of paper PMC8728848:
# The other results are listed elsewhere or left out.
# B1: Clrb (Mus musculus) (protein)
# chain: ITGATKTEQIPVNKTYAACPQNWIGVENKCFYFSEYPSNWTFAQAFCMAQEAQLARFDNQDELNFLMRYKANFDSWIGLHRESSEHPWKWTDNTEYNNTIPIRGEERFAYLNNNGISSTRIYSLRMWICSKLNSYSLHCQTPFFPSGTKHHHHHHHHG
# What was measured:
# Test in all cases: glycan array binding signal (z-score within array); higher = stronger binding
# Conditions in all cases: glycan notation: IUPAC condensed, linker removed
# [1] = target: Gal(b1-4)GlcNAc(b1-2)[Gal(b1-4)GlcNAc(b1-6)]Man(a1-6)[GlcNAc(b1-4)][Gal(b1-4)GlcNAc(b1-2)[Gal(b1-4)GlcNAc(b1-4)]Man(a1-3)]Man(b1-4)GlcNAc(b1-4)[Fuc(a1-6)]GlcNAc
# Procedure, shortened: (§1)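 The Consortium for Functional Glycomics database supplied 3228 glycan arrays, of which those lacking an available protein sequence were dropped. The binding signal, a within-array Z-score, was averaged across arrays of the same protein sequence and across linkers. Negative scores can be read as non-binding.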
# [2] = target: Gal(b1-4)GlcNAc(b1-3)Gal(b1-3)GalNAc
# Procedure, shortened: as §1
# [3] = target: Gal(b1-4)GlcNAc(b1-3)Gal(b1-3)GlcNAc
# Procedure, shortened: as §1
# [4] = target: Gal(b1-4)GlcNAc(b1-3)Gal(b1-4)Glc
# Procedure, shortened: as §1
# [5] = target: Gal(b1-4)GlcNAc(b1-3)Gal(b1-4)GlcNAc
# Procedure, shortened: as §1
# [6] = target: Gal(b1-4)GlcNAc(b1-3)Gal(b1-4)GlcNAc(b1-2)Man(a1-3)[Gal(b1-4)GlcNAc(b1-3)Gal(b1-4)GlcNAc(b1-2)Man(a1-6)]Man(b1-4)GlcNAc(b1-4)GlcNAc
# Procedure, shortened: as §1
# [7] = target: Gal(b1-4)GlcNAc(b1-3)Gal(b1-4)GlcNAc(b1-2)Man(a1-3)[Gal(b1-4)GlcNAc(b1-3)Gal(b1-4)GlcNAc(b1-2)Man(a1-6)]Man(b1-4)GlcNAc(b1-4)[Fuc(a1-6)]GlcNAc
# Procedure, shortened: as §1
# [8] = target: Gal(b1-4)GlcNAc(b1-3)Gal(b1-4)GlcNAc(b1-2)[Gal(b1-4)GlcNAc(b1-3)Gal(b1-4)GlcNAc(b1-6)]Man(a1-6)[Gal(b1-4)GlcNAc(b1-3)Gal(b1-4)GlcNAc(b1-2)Man(a1-3)]Man(b1-4)GlcNAc(b1-4)GlcNAc
# Procedure, shortened: as §1
# [9] = target: Gal(b1-4)GlcNAc(b1-3)Gal(b1-4)GlcNAc(b1-2)[Gal(b1-4)GlcNAc(b1-3)Gal(b1-4)GlcNAc(b1-6)]Man(a1-6)[Gal(b1-4)GlcNAc(b1-3)Gal(b1-4)GlcNAc(b1-2)Man(a1-3)]Man(b1-4)GlcNAc(b1-4)[Fuc(a1-6)]GlcNAc
# Procedure, shortened: as §1
# [10] = target: Gal(b1-4)GlcNAc(b1-3)Gal(b1-4)GlcNAc(b1-3)Gal(b1-4)GlcNAc
# Procedure, shortened: as §1
# [11] = target: Gal(b1-4)GlcNAc(b1-3)Gal(b1-4)GlcNAc(b1-3)Gal(b1-4)GlcNAc(b1-2)Man(a1-3)[Gal(b1-4)GlcNAc(b1-3)Gal(b1-4)GlcNAc(b1-3)Gal(b1-4)GlcNAc(b1-2)Man(a1-6)]Man(b1-4)GlcNAc(b1-4)GlcNAc
# Procedure, shortened: as §1
# [12] = target: Gal(b1-4)GlcNAc(b1-3)Gal(b1-4)GlcNAc(b1-3)Gal(b1-4)GlcNAc(b1-2)Man(a1-3)[Gal(b1-4)GlcNAc(b1-3)Gal(b1-4)GlcNAc(b1-3)Gal(b1-4)GlcNAc(b1-2)Man(a1-6)]Man(b1-4)GlcNAc(b1-4)[Fuc(a1-6)]GlcNAc
# Procedure, shortened: as §1
# [13] = target: Gal(b1-4)GlcNAc(b1-3)Gal(b1-4)GlcNAc(b1-3)Gal(b1-4)GlcNAc(b1-2)[Gal(b1-4)GlcNAc(b1-3)Gal(b1-4)GlcNAc(b1-3)Gal(b1-4)GlcNAc(b1-6)]Man(a1-6)[Gal(b1-4)GlcNAc(b1-3)Gal(b1-4)GlcNAc(b1-3)Gal(b1-4)GlcNAc(b1-2)Man(a1-3)]Man(b1-4)GlcNAc(b1-4)[Fuc(a1-6)]GlcNAc
# Procedure, shortened: as §1
# [14] = target: Gal(b1-4)GlcNAc(b1-3)Gal(b1-4)GlcNAc(b1-3)Gal(b1-4)GlcNAc(b1-3)Gal(b1-4)GlcNAc(b1-2)Man(a1-3)[Gal(b1-4)GlcNAc(b1-3)Gal(b1-4)GlcNAc(b1-3)Gal(b1-4)GlcNAc(b1-3)Gal(b1-4)GlcNAc(b1-2)Man(a1-6)]Man(b1-4)GlcNAc(b1-4)GlcNAc
# Procedure, shortened: as §1
# [15] = target: Gal(b1-4)GlcNAc(b1-3)Gal(b1-4)GlcNAc(b1-3)Gal(b1-4)GlcNAc(b1-3)Gal(b1-4)GlcNAc(b1-2)Man(a1-3)[Gal(b1-4)GlcNAc(b1-3)Gal(b1-4)GlcNAc(b1-3)Gal(b1-4)GlcNAc(b1-3)Gal(b1-4)GlcNAc(b1-2)Man(a1-6)]Man(b1-4)GlcNAc(b1-4)[Fuc(a1-6)]GlcNAc
# Procedure, shortened: as §1
# [16] = target: Gal(b1-4)GlcNAc(b1-3)Gal(b1-4)GlcNAc(b1-3)Gal(b1-4)GlcNAc(b1-3)Gal(b1-4)GlcNAc(b1-2)[Gal(b1-4)GlcNAc(b1-3)Gal(b1-4)GlcNAc(b1-3)Gal(b1-4)GlcNAc(b1-3)Gal(b1-4)GlcNAc(b1-6)]Man(a1-6)[Gal(b1-4)GlcNAc(b1-3)Gal(b1-4)GlcNAc(b1-3)Gal(b1-4)GlcNAc(b1-3)Gal(b1-4)GlcNAc(b1-2)Man(a1-3)]Man(b1-4)GlcNAc(b1-4)[Fuc(a1-6)]GlcNAc
# Procedure, shortened: as §1
# [17] = target: Gal(b1-4)GlcNAc(b1-3)Gal(b1-4)GlcNAc(b1-3)Gal(b1-4)GlcNAc(b1-3)Gal(b1-4)GlcNAc(b1-3)Gal(b1-4)GlcNAc(b1-2)Man(a1-3)[Gal(b1-4)GlcNAc(b1-3)Gal(b1-4)GlcNAc(b1-3)Gal(b1-4)GlcNAc(b1-3)Gal(b1-4)GlcNAc(b1-3)Gal(b1-4)GlcNAc(b1-2)Man(a1-6)]Man(b1-4)GlcNAc(b1-4)GlcNAc
# Procedure, shortened: as §1
# [18] = target: Gal(b1-4)GlcNAc(b1-3)Gal(b1-4)GlcNAc(b1-3)Gal(b1-4)GlcNAc(b1-3)Gal(b1-4)GlcNAc(b1-3)Gal(b1-4)GlcNAc(b1-2)Man(a1-3)[Gal(b1-4)GlcNAc(b1-3)Gal(b1-4)GlcNAc(b1-3)Gal(b1-4)GlcNAc(b1-3)Gal(b1-4)GlcNAc(b1-3)Gal(b1-4)GlcNAc(b1-2)Man(a1-6)]Man(b1-4)GlcNAc(b1-4)[Fuc(a1-6)]GlcNAc
# Procedure, shortened: as §1
# [19] = target: Gal(b1-4)GlcNAc(b1-3)Gal(b1-4)GlcNAc(b1-3)Gal(b1-4)GlcNAc(b1-3)Gal(b1-4)GlcNAc(b1-3)Gal(b1-4)GlcNAc(b1-2)[Gal(b1-4)GlcNAc(b1-3)Gal(b1-4)GlcNAc(b1-3)Gal(b1-4)GlcNAc(b1-3)Gal(b1-4)GlcNAc(b1-3)Gal(b1-4)GlcNAc(b1-6)]Man(a1-6)[Gal(b1-4)GlcNAc(b1-3)Gal(b1-4)GlcNAc(b1-3)Gal(b1-4)GlcNAc(b1-3)Gal(b1-4)GlcNAc(b1-3)Gal(b1-4)GlcNAc(b1-2)Man(a1-3)]Man(b1-4)GlcNAc(b1-4)[Fuc(a1-6)]GlcNAc
# Procedure, shortened: as §1
# [20] = target: Gal(b1-4)GlcNAc(b1-3)Gal(b1-4)GlcNAc(b1-3)Gal(b1-4)GlcNAc(b1-3)Gal(b1-4)GlcNAc(b1-3)Gal(b1-4)GlcNAc(b1-3)Gal(b1-4)GlcNAc(b1-2)Man(a1-3)[Gal(b1-4)GlcNAc(b1-3)Gal(b1-4)GlcNAc(b1-3)Gal(b1-4)GlcNAc(b1-3)Gal(b1-4)GlcNAc(b1-3)Gal(b1-4)GlcNAc(b1-3)Gal(b1-4)GlcNAc(b1-2)Man(a1-6)]Man(b1-4)GlcNAc(b1-4)GlcNAc
# Procedure, shortened: as §1
# [21] = target: Gal(b1-4)GlcNAc(b1-3)Gal(b1-4)GlcNAc(b1-3)GalNAc
# Procedure, shortened: as §1
# [22] = target: Gal(b1-4)GlcNAc(b1-3)Gal(b1-4)GlcNAc(b1-3)[Gal(b1-4)GlcNAc(b1-3)Gal(b1-4)GlcNAc(b1-6)]GalNAc
# Procedure, shortened: as §1
# [23] = target: Gal(b1-4)GlcNAc(b1-3)Gal(b1-4)GlcNAc(b1-6)[Gal(b1-3)]GalNAc
# Procedure, shortened: as §1
binder,measurement,setting,value
B1,glycan array binding signal (z-score),[1],-0.087
same,glycan array binding signal (z-score),[2],-0.411
same,glycan array binding signal (z-score),[3],-0.508
same,glycan array binding signal (z-score),[4],-0.33
same,glycan array binding signal (z-score),[5],-0.321
same,glycan array binding signal (z-score),[6],-0.164
same,glycan array binding signal (z-score),[7],-0.495
same,glycan array binding signal (z-score),[8],0.09
same,glycan array binding signal (z-score),[9],-0.381
same,glycan array binding signal (z-score),[10],-0.398
same,glycan array binding signal (z-score),[11],-0.111
same,glycan array binding signal (z-score),[12],-0.301
same,glycan array binding signal (z-score),[13],-0.324
same,glycan array binding signal (z-score),[14],-0.166
same,glycan array binding signal (z-score),[15],0.109
same,glycan array binding signal (z-score),[16],-0.417
same,glycan array binding signal (z-score),[17],-0.264
same,glycan array binding signal (z-score),[18],-0.223
same,glycan array binding signal (z-score),[19],-0.263
same,glycan array binding signal (z-score),[20],-0.285
same,glycan array binding signal (z-score),[21],-0.351
same,glycan array binding signal (z-score),[22],-0.21
same,glycan array binding signal (z-score),[23],-0.469
